The values that follow come from PubChem BioAssay (NCI).

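Test compounds were applied to cells in 96-well plates for 48 hours at 5 doses. At the GI50, growth is halved. TGI: total growth inhibition.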 Bounds are passed on as bounds.

The test system of the assay is NCI-H322M lung. Description: DTP human tumour cell line panel, 48 h.

By GI50 is commonly meant the concentration giving 50% growth inhibition. A word on the TGI: it is the concentration at which net growth stops. High values mean lower sensitivity of the cells, low ones greater sensitivity of the cells. `Nc1ccc(-c2nnc(SCc3ccc(O)c4ncccc34)o2)cc1`: the GI50 was 0.229 µM and the concentration for total growth inhibition (TGI) was more than 48.9 µM.
Take `COC(=O)c1ccc(NC2=C/C(=N/S(=O)(=O)c3ccc(C(=O)O)cc3)c3ccccc3C2=O)cc1`: the GI50 is 15.9 µM and the total growth inhibition concentration (TGI) was 31 µM.
In the same order, the values of `O=C(CCCCCCN1CC(=O)N2[C@@H](c3cccc(Br)c3)c3[nH]c4ccccc4c3C[C@H]2C1=O)NO` are 3.79 µM and more than 16.7 µM.
